Results published in the supplement of paper PMC3334620.
Whole data set: some 33,000 sequences, median “E-score (-0.5 to 0.5)” near -0.011, cut for the highest 2% near 0.28. The list shows a part of the results.

These sequences were tested against T1, Gcr1 (UniProt P07261) (assay: PBM E-score (8-mer binding enrichment) (E-score (-0.5 to 0.5)); higher = stronger / more preferred TF binding; most listed sequences are background and not binding sites). Conditions: protein concentration: 100 nM; construct: GST-full length.
T1 sequence: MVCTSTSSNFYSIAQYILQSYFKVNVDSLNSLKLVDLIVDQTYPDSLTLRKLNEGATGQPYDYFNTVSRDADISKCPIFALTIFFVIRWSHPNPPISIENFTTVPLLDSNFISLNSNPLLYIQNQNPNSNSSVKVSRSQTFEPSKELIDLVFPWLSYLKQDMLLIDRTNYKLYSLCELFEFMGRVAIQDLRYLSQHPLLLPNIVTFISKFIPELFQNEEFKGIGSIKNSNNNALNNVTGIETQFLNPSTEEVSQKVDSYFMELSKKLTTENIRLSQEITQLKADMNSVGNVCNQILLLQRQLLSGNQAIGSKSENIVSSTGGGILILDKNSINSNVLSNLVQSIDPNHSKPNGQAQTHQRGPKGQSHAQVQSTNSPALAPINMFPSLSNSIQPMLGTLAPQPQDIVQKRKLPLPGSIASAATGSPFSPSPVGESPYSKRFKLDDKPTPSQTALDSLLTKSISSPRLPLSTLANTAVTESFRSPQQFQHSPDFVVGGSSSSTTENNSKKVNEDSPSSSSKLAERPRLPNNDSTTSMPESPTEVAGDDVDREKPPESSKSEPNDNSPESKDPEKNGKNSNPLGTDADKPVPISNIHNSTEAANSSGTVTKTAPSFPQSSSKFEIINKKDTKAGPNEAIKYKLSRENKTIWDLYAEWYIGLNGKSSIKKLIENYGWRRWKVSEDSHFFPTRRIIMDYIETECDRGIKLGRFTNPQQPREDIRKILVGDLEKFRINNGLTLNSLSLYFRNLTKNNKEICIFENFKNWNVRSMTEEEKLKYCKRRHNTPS
How it was run: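 For each ungapped eight-base word taken together with its reverse complement, the Universal PBM Analysis Suite assigned an E-score. Binding data came from GST-tagged yeast transcription factors, applied at about 100-200 nM, on universal all-10-mer Agilent arrays made double-stranded by primer extension. Fluorescent anti-GST marked bound protein, and scans were normalised with masliner.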

Sequence	PBM E-score
GGAGGGTA	-0.251
ACCACCTC	-0.191
TGGCCAAA	-0.157
ACGCCACA	0.104
CTTCCCTC	-0.0496
ACCTCCCT	-0.242
CTGTAAAC	0.138
CGTATACC	0.0469
TAGAGGGA	-0.0458
CAACCTCG	-0.0837
CGAATACG	0.205
ACCGGAGC	0.183
CGGCATCC	0.444
AAGCAGGT	0.161
TACCAACA	0.0118
TCTGTGCA	-0.143
TGGAGAAA	-0.0779
GCCTGACA	-0.173
CTATCTAC	-0.239
AGTAAGTC	-0.105
CCAATCTA	0.207
AATCCCGC	0.185

Sequence	PBM E-score
CAAAGCGC	-0.119
ACACGGCG	0.0542
CGGACCAG	-0.117
ACCCGGAT	-0.073
AGGCTCAA	-0.283
ACGCGTAA	-0.0986
CGCAATTC	0.0283
ATGAATGG	0.0657
GCAACAGA	-0.0373
AACCTCAT	-0.222
ATCCTTAG	0.0994
ATCTCACG	-0.196
AGATAGAT	0.0108
GGCTATAA	0.139
ACCACAGG	0.0775
ATCCCGCC	-0.0496
GGCACGCC	-0.136
CATTTTCC	0.0794
CATCCGGG	0.143
TTAAACAA	-0.0415
CAAAAGGC	-0.0644
AATGAACA	-0.0781

Sequence	PBM E-score
GTATACGA	0.196
ACGACCCA	-0.03
GCATGCTA	-0.227
CGGCCACA	0.0838
CGGGCCTA	-0.19
GACGAGCC	-0.0889
GAACTTTA	0.0441
CATTGATC	-0.0206
ATGTATAC	-0.208
ACTACATA	0.0743
CTGATGCC	-0.0173
CTAATCAC	0.156
CTTTCTCC	-0.0695
CCAAAGCC	-0.0694
CCGTCTAG	0.0957
ACACAGTC	-0.23
GTCTCTAA	0.0027
AACCGCAA	0.168
CTCATGGC	-0.11
TAGCTATA	-0.0112
GTTCCCGA	0.235
AAGGACTG	-0.228

Sequence	PBM E-score
GCCCTAAC	0.0843
ATCAAGAG	-0.088
ATTTGTCC	-0.109
GCTGGCAC	0.0435
CAGCACCC	0.277
ATGGAATC	0.29
ACGTGCGA	-0.00287
CTCACCAA	0.123
ATTGGACC	0.0391
AATTCTAC	-0.00431
ACGATAAG	-0.0683
GCGAATAA	-0.0656
AGACCGAG	-0.0928
AAGTCCAG	0.03
CCAGGGCC	-0.0915
GGAATGGA	-0.103
CGGGACGA	-0.213
ACTTAAGC	-0.132
AAAAAGAG	0.162
CCGCGACG	-0.141
